The record followed here is patent US20060172958A1 (published 2006).

This test has as its target T1, phospholipid scramblase 3 (PLS3), human, isoform not stated (human, UniProt Q9NRY6 1-295, limits assumed, phosphothreonine, position not stated (shown by the anti-PT blot of immunoprecipitated PLS3)).
T1 construct: also called endogenous PLS3; wild-type PLS3
Briefly: co-immunoprecipitation with PLS3 antibody, Western blot with Bcl-xL antibody. On the technique in general: In western blotting, separated proteins are transferred to a membrane and probed.

B1: Bcl-xL (other)
chain: not shown
Turning to B1, the binding result was “no binding”.
